Assay results as given in the supplement of paper PMC12217912.
The list shows a part of the results. Sequences were assembled here from the parent chain. Inactive controls read about 0.05.

B1: TEV protease; numbered along this chain (parent)
chain: MGESLFKGPRDYNPISSSICHLTNESDGHTTSLYGIGFGPFIITNKHLFRRNNGTLVVQSLHGVFKVKDTTTLQQHLVDGRDMIIIRMPKDFPPFPQKLKFREPQREERICLVTTNFQTKSMSSMVSDTSCTFPSGDGIFWKHWIQTKDGQCGSPLVSTRDGFIVGIHSASNFTNTNNYFTSVPKNFMELLTNQEAQQWVSGWRLNADSVLWGGHKVFMVKPEEPFQPVKEATQL

Variants of: B1
Test: raw area under fraction-flipped curve 0-4 h after induction (AUC4h, not background-subtracted), DNA-recorder readout of cleavage of the substrate (dimensionless); higher = more cleavage of the substrate by the protease variant
Settings: temperature: 34 °C; time window: 0-4 h after rhamnose induction
Protocol: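 In vivo DNA recorder in E. coli TOP10(DE3) ΔrhaA at 34 °C. Each TEVp single-site mutant (parent TEVp 0) is paired with a single-site variant of the 7-mer TEVs (canonical ENLYFQ|S). The substrate sits between flexible linkers in a Bxb1-sfGFP-TEVs-SsrA fusion, so cleavage stabilises Bxb1 and speeds flipping of a recombination array, read by NGS. The value is the raw area under the fraction-flipped curve over 0-4 h after rhamnose induction (AUC4h), with ≥20 reads per time point. It is not background-subtracted; inactive controls average about 0.047.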
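Note: Bxb1 expression induced with 0.2% (w/v) L-rhamnose at OD600 near 0.5, cultures sampled hourly, flipped fraction per protease–substrate barcode pair counted by paired-end Illumina sequencing.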

Row | Variant | area with substrate ANLYFQS | area with substrate DNLYFQS | area with substrate FNLYFQS | area with substrate GNLYFQS | area with substrate HNLYFQS | area with substrate INLYFQS | area with substrate KNLYFQS | area with substrate LNLYFQS | area with substrate MNLYFQS | area with substrate PNLYFQS | area with substrate RNLYFQS | area with substrate SNLYFQS | area with substrate VNLYFQS | area with substrate WNLYFQS | area with substrate YNLYFQS | area with substrate QNLYFQS | area with substrate TNLYFQS | area with substrate CNLYFQS | area with substrate NNLYFQS
1 | T114Q | 0.0591 | 0.0815 | 0.069 | 0.0976 | 0.0649 | 0.0567 | 0.0648 | 0.0767 | 0.0688 | 0.0669 | 0.0672 | 0.0765 | 0.0684 | 0.0587 | 0.066 | – | – | – | –
2 | T114V | 0.0688 | 0.0618 | – | – | 0.0603 | 0.0804 | 0.0683 | 0.0997 | 0.0588 | 0.0753 | 0.0659 | 0.0696 | – | – | 0.086 | 0.0673 | 0.0652 | – | –
3 | N45K | 0.0451 | – | 0.0588 | 0.0448 | 0.0543 | – | 0.0578 | 0.0461 | 0.0505 | 0.0541 | – | 0.0499 | 0.0714 | 0.0604 | 0.0553 | – | 0.0576 | 0.0588 | 0.0658
4 | M122H | 0.0721 | – | – | 0.0826 | 0.0707 | 0.0625 | 0.0614 | – | – | 0.0637 | 0.0587 | 0.0593 | – | 0.0555 | 0.0714 | – | 0.093 | 0.0633 | –
5 | D11M | 0.0523 | – | 0.0671 | 0.0605 | 0.0439 | 0.0551 | 0.0666 | 0.0539 | 0.0612 | 0.0682 | – | 0.0612 | – | 0.059 | 0.0635 | – | 0.0547 | 0.059 | 0.0707
6 | T44C | 0.059 | – | 0.064 | 0.0627 | 0.0578 | 0.0643 | 0.0462 | 0.0573 | 0.059 | 0.0602 | 0.0663 | 0.0643 | 0.0706 | – | 0.0583 | – | 0.0566 | 0.0588 | 0.0682
7 | C111I | 0.061 | – | – | 0.0489 | 0.0583 | 0.0614 | – | 0.0681 | 0.0626 | 0.0633 | – | – | – | 0.0569 | 0.0648 | – | 0.0551 | 0.0836 | 0.0717
8 | H143K | 0.038 | – | – | – | 0.0582 | 0.0328 | – | 0.0668 | 0.0459 | – | 0.0505 | 0.0578 | – | 0.0555 | 0.051 | 0.0608 | 0.0613 | 0.0612 | –
9 | S130N | 0.0525 | – | – | – | 0.0717 | 0.0622 | 0.0592 | 0.0718 | – | 0.0606 | – | – | 0.0721 | 0.0554 | – | – | – | 0.0675 | –
10 | N175Y | 0.109 | – | – | – | 0.0562 | 0.065 | 0.068 | 0.0562 | 0.0695 | – | 0.0581 | – | – | – | 0.0134 | – | 0.0648 | 0.059 | –
11 | R109H | 0.062 | – | – | – | – | – | 0.0962 | 0.0665 | – | 0.0614 | – | 0.066 | 0.0395 | 0.0295 | 0.0598 | – | 0.0724 | 0.0655 | 0.0731
12 | Y34I | 0.0829 | – | – | – | 0.0484 | – | 0.0532 | 0.0633 | – | 0.0632 | – | – | 0.0753 | 0.0602 | – | – | 0.0597 | 0.066 | –
13 | F38A | 0.0647 | – | 0.0688 | 0.0463 | 0.0555 | 0.0596 | 0.0482 | 0.0579 | 0.0506 | 0.0608 | – | – | – | 0.0521 | 0.0571 | – | 0.0677 | 0.068 | 0.044
14 | E25Q | 0.0742 | – | 0.0583 | 0.073 | 0.064 | – | – | 0.0607 | – | 0.0682 | – | – | – | 0.0624 | – | – | 0.0579 | 0.0589 | –
